Assay results published in PubChem BioAssay AID686978 (National Center for Advancing Translational Sciences (NCATS), 2013).
The whole screen tested about 420,000 compounds, of which about 64,000 (15%) were called active. The shares of active, inactive and inconclusive entries below differ from those in the screen. Calls follow the shape of the dose curve; as a rule, active = well fitted inhibition curve with a large enough effect; inconclusive = small, poorly fitted or top-dose-only effect; inactive = flat fitted curve, though single readings scatter. No potency is given beside an inconclusive call; the fits are too rough.

Assay: qHTS for Inhibitors of human tyrosyl-DNA phosphodiesterase 1 (TDP1): qHTS in cells in absence of CPT; also: nearly all actives have a fitted effect of over 55% in size
Conditions: DT40 Tdp1-/- hTDP1 cells, no CPT, ATP luminescence, 48 h; activity change, negative = growth inhibition: at 46.2 µM (top of the series)
How it was run: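 Luminescent ATP content (CellTiter-Glo) served as the growth readout. Knockout chicken DT40 cells expressing human TDP1 were exposed to compounds without camptothecin for a minimum 48 hr at 37 °C.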
% is scaled to controls: 0 for no effect and ±100 for the full control effect; potency is read from the fitted curve at half-maximal effect; tags tell the direction and shape of the fitted curve.

Row | SMILES | Potency | activity change, negative = growth inhibition
1 | O=C(CN1C(=O)NC2(CCc3ccccc3C2)C1=O)Nc1ccc(F)cc1 (stereo not given) | inconclusive [inhibitor, partial curve] | 
2 | Cc1ccc(NC(=O)c2cc(S(=O)(=O)N3CCCCC3)ccc2N2CCOCC2)c(C)c1 | inconclusive [inhibitor, single point] | 
3 | COc1ccc(C(=O)NCC(c2ccc3c(c2)OCO3)N2CCN(C)CC2)cc1OC (stereo not given) | inactive | 
4 | Cc1cc(NC(=O)CN2CCC(O)CC2)nc2c1c(=O)oc1ccccc12 | inconclusive [inhibitor, single point] | 
5 | O=C(c1ccc(Cl)cc1)C1CCN(C(=S)Nc2ccccc2)CC1 | active: 16.4 µM | 
6 | CCC(C)NC(=O)C1CCC(CNS(=O)(=O)c2ccc3c(c2)CC(C)N3C(=O)C2CC2)CC1 (stereo not given) | inconclusive [inhibitor, partial curve] | 
7 | CSc1ncc2[nH]c(C(O)c3ccccc3)nc2n1 (stereo not given) | active: 10.3 µM | 
8 | CC(=O)NC1C(OCc2ccccc2)OC2COC(C)(C)OC2C1O (stereo not given) | inactive | 
9 | CCOC(=O)[C@H]1[C@H]2COc3cc(OC)ccc3[C@@H]2N2C(=O)c3cc(F)ccc3NC(=O)[C@@]12C | inconclusive [inhibitor, single point] | 
10 | COc1ccc(C2Nc3ccccc3C(=O)N2Cc2ccccc2)cc1OC (stereo not given) | inconclusive [inhibitor, single point] | 
11 | C[C@]12CC[C@H](O)CC1=CCC1C2CC[C@@]2(C)C1CC[C@@H]2NCc1ccccc1 (stereo not given in full) | active: 20.6 µM | 
12 | Cc1ccccc1-c1cc(C(=O)Nc2sc(C(=O)OC(C)C)c(C)c2C#N)c2ccccc2n1 | active: 20.6 µM | 
13 | O=C(COC(=O)c1ccco1)Nc1ccccc1[N+](=O)[O-] | inactive | 
14 | CCN1CCN(c2ncnc3c2cnn3-c2ccc(F)cc2)CC1 | inconclusive [inhibitor, single point] | 
15 | Cc1ccc(SCC(=O)N2CCN(c3ccc(F)cc3)CC2)cc1 | inactive | 
16 | CCc1nc2ccc(C(=O)Nc3ccc(OC)c(OC)c3)cn2c1N(CC)Cc1ccc(OC)c(OC)c1 | inconclusive [inhibitor, single point] | 
17 | CC(OC(=O)Cc1ccc(Br)cc1)C(=O)NC1CCCCC1C (stereo not given) | inconclusive [inhibitor, single point] | 
18 | O=C1NC[C@@H](CCCCN2C[C@H](Cc3ccc(O)cc3)N(CC3CCCCC3)C(=O)C2=O)N(CC2CCCCC2)C1=O | inactive | 
19 | Cc1ccc(Nc2cc(=O)oc3ccccc23)c(C)c1 | inactive | 
20 | CC(=O)NNC(=S)Nc1cc(S(=O)(=O)N(C)C)ccc1C |  | inconclusive: -37.3% [inhibitor]
21 | CCOC(=O)c1c(C)[nH]c(C)c1S(=O)(=O)N1CCC(C(=O)Nc2ccc(OC)c(OC)c2)CC1 | inactive | 
22 | Cc1cccc(C)c1NC(=S)NCc1ccncc1 | inactive | 
23 | Cc1nc2scc(C)n2c(=O)c1S(=O)(=O)N1CCN(c2ccccn2)CC1 | inconclusive [inhibitor, single point] | 

Row | SMILES | Potency | activity change, negative = growth inhibition
24 | CC[C@]12c3[nH]c4ccc(Cl)cc4c3CCN1C(=O)[C@@H](CC(=O)NCCc1ccccn1)C[C@@H]2C(=O)N1CCN(C(=O)c2ccco2)CC1 | inconclusive [inhibitor, single point] | 
25 | CCc1ccc(-c2cc(C(F)(F)F)n3nc(C(=O)Nc4cnn(Cc5ccc(C)cc5)c4)cc3n2)s1 | active: 5.01 µM | 
26 | CCCCCC1CC1C(=O)N/N=C/c1ccc(N(C)C)cc1 (stereo not given) | inconclusive [inhibitor, single point] | 
27 | C=CC[C@H](CC(=O)N(CCO)Cc1ccccc1)C(=O)N[C@@H](COC(=O)[C@H](CC=C)CC(=O)OC(C)(C)C)Cc1c[nH]c2ccccc12 | active: 16.4 µM | 
28 | Cc1ccc(/C=C(\CCC(=O)O)c2nc3ccccc3s2)cc1[N+](=O)[O-] | inactive | 
29 | Cc1ccc(S(=O)(=O)N2CCCCC2)cc1C(=O)N1CCCC1 | inactive | 
30 | COc1ccc(N(C(C)C(=O)Nc2ccc(S(=O)(=O)N3CCOCC3)cc2)S(C)(=O)=O)cc1 (stereo not given) | inconclusive [inhibitor, single point] | 
31 | CCOCCOC(=O)C1=C(C)N(C)C(=O)NC1c1ccccc1F (stereo not given) | inactive | 
32 | CCc1nnc(NC(=O)CN2C(=O)c3ccccc3C2=O)s1 | inconclusive [inhibitor, single point] | 
33 | COc1ccc(NC(=O)CN(C)C(=O)Cc2c(C)nc3ccccc3c2C)cc1 | inconclusive [inhibitor, partial curve] | 
34 | CC(Oc1ccc(-c2ccccc2)c(F)c1)c1ccn(S(=O)(=O)c2cccc3ccccc23)n1 (stereo not given) | inconclusive [inhibitor, single point] | 
35 | CCOc1ccc(-c2[nH]ncc2Oc2ccccc2OC)c(O)c1 | inconclusive [inhibitor, partial curve, poor fit] | 
36 | CCc1cc(Cn2nc(-c3ccccc3)cc2C(=O)NCc2cccc(Br)c2)on1 | active: 16.4 µM | 
37 | COc1ccc(-c2cn[nH]c2N)c(OC)c1 | inconclusive [inhibitor, partial curve] | 
38 | CCOc1ccc(-n2c(SCC(=O)c3ccccc3)nc3c([nH]c4ccccc43)c2=O)cc1 | inconclusive [inhibitor, partial curve, poor fit] | 
39 | COc1ccc(NC(=O)CCCn2c(=O)c3sccc3n(Cc3ccc(C)cc3)c2=O)cc1 | inconclusive [inhibitor, single point] | 
40 | Cc1cnc(NC(=O)c2ccc(-c3nc4ccccc4s3)o2)s1 | inconclusive [inhibitor, single point] | 
41 | O=C(Cc1cc(=O)[nH][nH]1)N/N=C/c1cccc2ccccc12 | inactive | 
42 | Cc1ccsc1/C=N/NC(=O)c1cccs1 | inactive | 
43 | O=C(CN1CCN(C(=O)c2ccco2)CC1)Nc1cccc([N+](=O)[O-])c1 | inconclusive [inhibitor, single point] | 
44 | CC(NC(=O)c1ccc(F)cc1)c1ccc(F)cc1 (stereo not given) | inactive | 
45 | CC(C)c1nc2sc3c(N4CCCCC4)ncnc3c2c2c1CCCC2 | inactive | 
